What all share (test): Viability of human cancer cell lines after 72 h of drug (GDSC screen)
Compound in one assay: CC(C)CC(=O)Nc1n[nH]c2c1CN(C(=O)C1CCN(C)CC1)C2(C)C [PHA-793887]
The conditions noted are these: top dose 10.24 µM. As to the method:
(§1)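 Human cancer cell lines in 384-well plates, medium with 10% serum, drug for 72 h over a 256-fold dose range (nine 2-fold or five 4-fold steps up to the top dose). Adherent lines were fixed and stained with the nucleic acid dye Syto60, suspension lines read with resazurin; signal relative to control wells, capped at 0 and 100%. One two-parameter sigmoid per drug and line, fitted in a mixed model over all curves with the slope shared within a line.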

Compound in a further assay: CCCS(=O)(=O)Nc1ccc(F)c(C(=O)c2c[nH]c3ncc(Cl)cc23)c1F [PLX4720]
The note with it: top dose 10 µM. As for the experimental part:
as §1

Compound in the next assay: CCc1nc(N)nc(N)c1-c1ccc(Cl)cc1 [Pyrimethamine]
The conditions noted are these: top dose 20 µM; top dose inferred. As for the experimental part: as §1

Compound in a further assay: CN1CCN(CCOc2cc(OC3CCOCC3)c3c(Nc4c(Cl)ccc5c4OCO5)ncnc3c2)CC1 [AZD-0530]
The conditions noted are these: top dose 2 µM. As for the experimental part: as §1

Compound in a further assay: C/C(=C\c1csc(C)n1)[C@@H]1C[C@@H]2O[C@]2(C)CCC[C@H](C)[C@H](O)[C@@H](C)C(=O)C(C)(C)[C@@H](O)CC(=O)O1 [Epothilone B]
The note with it: top dose 0.032 µM; top dose inferred. As for the experimental part: as §1

Compound in the next assay: C[C@@H](N)c1ccc(C(=O)Nc2ccnc3[nH]ccc23)cc1 [Y-39983]
The conditions noted are these: top dose 20 µM; top dose inferred. As for the experimental part: as §1

Compound in a further assay: NC(=O)Nc1sc(-c2ccc(F)cc2)cc1C(N)=O [TPCA-1]
The note with it: top dose 20 µM. As to the method: as §1

Compound in another assay: Cc1ccc(NC(=O)c2ccc(CN3CCN(C)CC3)cc2)cc1Nc1nccc(-c2cccnc2)n1 [Imatinib]
The conditions noted are these: top dose 2 µM. As to the method:
as §1

Setting [1] is: screen: GDSC drug entry 1371, top dose inferred.

Lines with a small IC50 respond at low doses; fits outside the tested doses are given as limits. For AUC the same curve is integrated over the 256-fold range of doses and scaled to a fraction: 1 means no effect, lower means more sensitive. For part of these data: The top dose, if marked as inferred, comes from the curve model; the source does not state it. For part of these data: Drugs with an entry number were screened twice under separate entries, and the two screens often disagree.

For orientation: IC50 means the point on the concentration scale where inhibition reaches its midpoint. ROS-50 (B-cell leukaemia, suspension): the AUC with PHA-793887 was determined as 0.92; with PLX4720 (screen: GDSC drug entry 1036) it was 0.966; with PLX4720 (setting [1]), 0.981; with Pyrimethamine it was 0.942; in the assay with AZD-0530, 0.97; with Epothilone B, 0.963. Also, the AUC in the assay with Y-39983 was 0.943; with TPCA-1, 0.759; with Imatinib, 0.984. In addition, the concentration for half-maximal inhibition (IC50) was more than 10.2 µM with PHA-793887; more than 10 µM with PLX4720 (screen: GDSC drug entry 1036); more than 10 µM in the assay with PLX4720 (setting [1]); more than 20 µM in the assay with Pyrimethamine; more than 2 µM with AZD-0530; more than 0.032 µM in the assay with Epothilone B. Moreover, the IC50 was more than 20 µM in the assay with Y-39983, 8.84 µM with TPCA-1 and more than 2 µM with Imatinib.

As for Raji (Burkitt lymphoma, suspension), the AUC came to 0.818 with PHA-793887; 0.969 with PLX4720 (screen: GDSC drug entry 1036); 0.984 with PLX4720 (setting [1]); 0.937 with Pyrimethamine; 0.989 with AZD-0530; 0.938 with Epothilone B. The values for the AUC with Y-39983, in the assay with TPCA-1 and in the assay with Imatinib were 0.933, 0.852 and 0.99, respectively. The IC50 was 5.31 µM with PHA-793887; more than 10 µM in the assay with PLX4720 (screen: GDSC drug entry 1036); more than 10 µM with PLX4720 (setting [1]); more than 20 µM in the assay with Pyrimethamine; more than 2 µM in the assay with AZD-0530; more than 0.032 µM in the assay with Epothilone B. Also, the IC50 with Y-39983 is more than 20 µM; with TPCA-1, 13.9 µM; with Imatinib, more than 2 µM.

Consider SF539 (glioma, adherent), for which the AUC in the assay with PHA-793887 stood at 0.782; in the assay with PLX4720 (screen: GDSC drug entry 1036), 0.989; with PLX4720 (setting [1]) it was 0.969; with Pyrimethamine, 0.649; in the assay with AZD-0530, 0.986; with Epothilone B, 0.517. For the same cell line, the results for the AUC in the assay with Y-39983, in the assay with TPCA-1 and in the assay with Imatinib were 0.977, 0.973 and 0.984, respectively. Further, the IC50 was 3.84 µM with PHA-793887; more than 10 µM with PLX4720 (screen: GDSC drug entry 1036); more than 10 µM in the assay with PLX4720 (setting [1]); 3.08 µM with Pyrimethamine; more than 2 µM in the assay with AZD-0530; 0.00222 µM with Epothilone B. Also, the IC50 in the assay with Y-39983 was more than 20 µM; with TPCA-1 it was more than 20 µM; with Imatinib, more than 2 µM.

ST486 (Burkitt lymphoma, suspension): the AUC came out at 0.171 in the assay with PHA-793887; 0.953 with PLX4720 (screen: GDSC drug entry 1036); 0.989 with PLX4720 (setting [1]); 0.796 with Pyrimethamine; 0.825 with AZD-0530; 0.395 in the assay with Epothilone B. Besides, the AUC worked out at 0.273 with Y-39983, 0.315 in the assay with TPCA-1 and 0.735 in the assay with Imatinib. Besides, the IC50 with PHA-793887 is 0.0761 µM; with PLX4720 (screen: GDSC drug entry 1036), more than 10 µM; in the assay with PLX4720 (setting [1]), more than 10 µM; in the assay with Pyrimethamine, 8.17 µM; in the assay with AZD-0530, 1.02 µM; in the assay with Epothilone B, 0.00107 µM. In addition, the half-inhibitory concentration (IC50) came out at 0.31 µM with Y-39983, 0.406 µM in the assay with TPCA-1 and 0.534 µM with Imatinib.

For “SUP-T1 (T-cell lymphoblastic leukaemia, suspension)”, the AUC worked out at 0.544 in the assay with PHA-793887; 0.957 with PLX4720 (screen: GDSC drug entry 1036); 0.989 in the assay with PLX4720 (setting [1]); 0.985 in the assay with Pyrimethamine; 0.99 in the assay with AZD-0530; 0.786 with Epothilone B. Further, the AUC in the assay with Y-39983 was determined as 0.957; in the assay with TPCA-1, 0.736; in the assay with Imatinib, 0.91. Moreover, the IC50 with PHA-793887 was 0.836 µM; with PLX4720 (screen: GDSC drug entry 1036), more than 10 µM; with PLX4720 (setting [1]) it was more than 10 µM; in the assay with Pyrimethamine, more than 20 µM; with AZD-0530, more than 2 µM; in the assay with Epothilone B it was 0.0125 µM. Further, the IC50 with Y-39983 is more than 20 µM; in the assay with TPCA-1 it was 5.45 µM; with Imatinib, more than 2 µM.

Regarding SW954 (urogenital system, adherent), the AUC in the assay with PHA-793887 was 0.817; in the assay with PLX4720 (screen: GDSC drug entry 1036), 0.968; with PLX4720 (setting [1]), 0.955; in the assay with Pyrimethamine, 0.962; with AZD-0530, 0.926; in the assay with Epothilone B it was 0.291. Besides, the AUC with Y-39983 came to 0.869; in the assay with TPCA-1, 0.73; with Imatinib, 0.984. Further, the concentration for half-maximal inhibition (IC50) in the assay with PHA-793887 is 5.84 µM; in the assay with PLX4720 (screen: GDSC drug entry 1036), more than 10 µM; with PLX4720 (setting [1]), more than 10 µM; with Pyrimethamine, more than 20 µM; with AZD-0530 it was more than 2 µM; in the assay with Epothilone B, 0.000511 µM. Besides, the 50% inhibitory concentration (IC50) with Y-39983 was 18.8 µM; with TPCA-1 it was 5.71 µM; in the assay with Imatinib, more than 2 µM.

As for TE-12 (oesophagus, suspension), the AUC was 0.889 in the assay with PHA-793887; 0.912 with PLX4720 (screen: GDSC drug entry 1036); 0.933 with PLX4720 (setting [1]); 0.889 with Pyrimethamine; 0.641 with AZD-0530; 0.588 in the assay with Epothilone B. The AUC with Y-39983 amounted to 0.958; in the assay with TPCA-1 it was 0.85; with Imatinib, 0.98. The IC50 with PHA-793887 was more than 10.2 µM; with PLX4720 (screen: GDSC drug entry 1036) it was more than 10 µM; in the assay with PLX4720 (setting [1]), more than 10 µM; with Pyrimethamine it was more than 20 µM; in the assay with AZD-0530, 0.336 µM; with Epothilone B, 0.00367 µM. Moreover, the figures for the concentration for half-maximal inhibition (IC50) with Y-39983, with TPCA-1 and with Imatinib were more than 20 µM, more than 20 µM and more than 2 µM, respectively.

Take VA-ES-BJ (soft tissue, adherent): the AUC with PHA-793887 was found to be 0.897; with PLX4720 (screen: GDSC drug entry 1036) it was 0.866; with PLX4720 (setting [1]) it was 0.912; with Pyrimethamine it was 0.824; with AZD-0530 it was 0.95; with Epothilone B it was 0.57. Further, the values for the AUC in the assay with Y-39983, in the assay with TPCA-1 and with Imatinib were 0.98, 0.957 and 0.98, respectively. Further, the half-maximal inhibitory concentration (IC50) with PHA-793887 was more than 10.2 µM; in the assay with PLX4720 (screen: GDSC drug entry 1036), 9.76 µM; with PLX4720 (setting [1]) it was more than 10 µM; with Pyrimethamine, 12.7 µM; in the assay with AZD-0530 it was more than 2 µM; with Epothilone B, 0.00313 µM. The IC50 with Y-39983 is more than 20 µM; with TPCA-1 it was more than 20 µM; in the assay with Imatinib it was more than 2 µM.

The values above are taken from the supplement of paper PMC4967469.
